Experimental data as given in the supplement of paper PMC8728848.
The other results are listed elsewhere or left out.

Legend:
Test in all cases: glycan array binding signal (z-score within array); higher = stronger binding
Conditions in all cases: glycan notation: IUPAC condensed, linker removed
[1] = target: Gal(b1-3)GlcNAc(a1-3)Gal(b1-4)GlcNAc
How it was run: (§1)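 The binding signal is a Z-score computed within each array and averaged over linkers. Arrays of the same protein sequence at different concentrations or buffers were also averaged together. Data originate from 3228 arrays in the Consortium for Functional Glycomics database, kept only where the protein sequence was available.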

[2] = target: Gal(b1-3)GlcNAc(a1-6)Gal(b1-4)GlcNAc
How it was run: as §1

Gal(b1-3)GlcNAc(b1-2)Man = target: Gal(b1-3)GlcNAc(b1-2)Man
How it was run: as §1

[3] = target: Gal(b1-3)GlcNAc(b1-2)Man(a1-3)[Gal(b1-3)GlcNAc(b1-2)Man(a1-6)]Man(b1-4)GlcNAc(b1-4)GlcNAc
How it was run: as §1

[4] = target: Gal(b1-3)GlcNAc(b1-2)Man(a1-3)[Gal(b1-3)GlcNAc(b1-2)Man(a1-6)]Man(b1-4)GlcNAc(b1-4)[Fuc(a1-6)]GlcNAc
How it was run: as §1

[5] = target: Gal(b1-3)GlcNAc(b1-2)Man(a1-3)[GlcNAc(b1-4)][Gal(b1-3)GlcNAc(b1-2)Man(a1-6)]Man(b1-4)GlcNAc(b1-4)GlcNAc
How it was run: as §1

[6] = target: Gal(b1-3)GlcNAc(b1-2)[Gal(b1-3)GlcNAc(b1-6)]Man(a1-6)[Gal(b1-3)GlcNAc(b1-2)Man(a1-3)]Man(b1-4)GlcNAc(b1-4)GlcNAc
How it was run: as §1

[7] = target: Gal(b1-3)GlcNAc(b1-3)Gal(b1-3)GlcNAc
How it was run: as §1

[8] = target: Gal(b1-3)GlcNAc(b1-3)Gal(b1-4)Glc
How it was run: as §1

[9] = target: Gal(b1-3)GlcNAc(b1-3)Gal(b1-4)GlcNAc
How it was run: as §1

[10] = target: Gal(b1-3)GlcNAc(b1-3)Gal(b1-4)GlcNAc(b1-2)Man(a1-3)[Gal(b1-3)GlcNAc(b1-3)Gal(b1-4)GlcNAc(b1-2)Man(a1-6)]Man(b1-4)GlcNAc(b1-4)GlcNAc
How it was run: as §1

[11] = target: Gal(b1-3)GlcNAc(b1-3)Gal(b1-4)GlcNAc(b1-2)[Gal(b1-3)GlcNAc(b1-3)Gal(b1-4)GlcNAc(b1-6)]Man(a1-6)[Gal(b1-3)GlcNAc(b1-3)Gal(b1-4)GlcNAc(b1-2)Man(a1-3)]Man(b1-4)GlcNAc(b1-4)[Fuc(a1-6)]GlcNAc
How it was run: as §1

[12] = target: Gal(b1-3)GlcNAc(b1-3)Gal(b1-4)GlcNAc(b1-3)Gal(b1-4)GlcNAc(b1-2)[Gal(b1-3)GlcNAc(b1-3)Gal(b1-4)GlcNAc(b1-3)Gal(b1-4)GlcNAc(b1-6)]Man(a1-6)[Gal(b1-3)GlcNAc(b1-3)Gal(b1-4)GlcNAc(b1-3)Gal(b1-4)GlcNAc(b1-2)Man(a1-3)]Man(b1-4)GlcNAc(b1-4)[Fuc(a1-6)]GlcNAc
How it was run: as §1

[13] = target: Gal(b1-3)GlcNAc(b1-3)Gal(b1-4)GlcNAc(b1-6)[Gal(b1-3)GlcNAc(b1-3)]Gal(b1-4)Glc
How it was run: as §1

[14] = target: Gal(b1-3)GlcNAc(b1-3)Gal(b1-4)[Fuc(a1-3)]GlcNAc
How it was run: as §1

[15] = target: Gal(b1-3)GlcNAc(b1-3)Gal(b1-4)[Fuc(a1-3)]GlcNAc(b1-6)[Gal(b1-3)GlcNAc(b1-3)]Gal(b1-4)Glc
How it was run: as §1

[16] = target: Gal(b1-3)GlcNAc(b1-3)GalNAc
How it was run: as §1

[17] = target: Gal(b1-3)GlcNAc(b1-6)Gal(b1-4)GlcNAc
How it was run: as §1

[18] = target: Gal(b1-3)GlcNAc(b1-6)GalNAc
How it was run: as §1

[19] = target: Gal(b1-3)GlcNAc(b1-6)[Gal(b1-3)]GalNAc
How it was run: as §1

Gal(b1-3)GlcNAc6S = target: Gal(b1-3)GlcNAc6S
How it was run: as §1

[20] = target: Gal(b1-3)[Fuc(a1-4)]GlcNAc
How it was run: as §1

[21] = target: Gal(b1-3)[Fuc(a1-4)]GlcNAc(b1-2)Man
How it was run: as §1

[22] = target: Gal(b1-3)[Fuc(a1-4)]GlcNAc(b1-2)Man(a1-3)[Gal(b1-3)[Fuc(a1-4)]GlcNAc(b1-2)Man(a1-6)]Man(b1-4)GlcNAc(b1-4)[Fuc(a1-6)]GlcNAc
How it was run: as §1

[23] = target: Gal(b1-3)[Fuc(a1-4)]GlcNAc(b1-3)Gal(b1-3)[Fuc(a1-4)]GlcNAc
How it was run: as §1

[24] = target: Gal(b1-3)[Fuc(a1-4)]GlcNAc(b1-3)Gal(b1-4)GlcNAc
How it was run: as §1

[25] = target: Gal(b1-3)[Fuc(a1-4)]GlcNAc(b1-3)Gal(b1-4)[Fuc(a1-3)]GlcNAc
How it was run: as §1

[26] = target: Gal(b1-3)[Fuc(a1-4)]GlcNAc(b1-6)GalNAc
How it was run: as §1

[27] = target: Gal(b1-3)[GlcNAc(b1-6)]GalNAc
How it was run: as §1

[28] = target: Gal(b1-3)[Neu5Ac(a2-6)]GalNAc
How it was run: as §1

[29] = target: Gal(b1-3)[Neu5Ac(a2-6)]GlcNAc(b1-4)Gal(b1-4)Glc
How it was run: as §1

[30] = target: Gal(b1-3)[Neu5Ac(a2-6)]GlcNAc(b1-6)Gal(b1-4)Glc
How it was run: as §1

[31] = target: Gal(b1-3)[Neu5Ac(b2-6)]GalNAc
How it was run: as §1

Gal(b1-4)Gal = target: Gal(b1-4)Gal
How it was run: as §1

[32] = target: Gal(b1-4)GalNAc(a1-3)[Fuc(a1-2)]Gal(b1-4)GlcNAc
How it was run: as §1

[33] = target: Gal(b1-4)GalNAc(b1-3)[Fuc(a1-2)]Gal(b1-4)GlcNAc
How it was run: as §1

Gal(b1-4)Glc = target: Gal(b1-4)Glc
How it was run: as §1

Gal(b1-4)Glc6S = target: Gal(b1-4)Glc6S
How it was run: as §1

Gal(b1-4)GlcNAc = target: Gal(b1-4)GlcNAc
How it was run: as §1

[34] = target: Gal(b1-4)GlcNAc(a1-6)Gal(b1-4)GlcNAc
How it was run: as §1

Gal(b1-4)GlcNAc(b1-2)Man = target: Gal(b1-4)GlcNAc(b1-2)Man
How it was run: as §1

[35] = target: Gal(b1-4)GlcNAc(b1-2)Man(a1-3)Man(b1-4)GlcNAc(b1-4)GlcNAc
How it was run: as §1

[36] = target: Gal(b1-4)GlcNAc(b1-2)Man(a1-3)[Gal(b1-4)GlcNAc(b1-2)Man(a1-6)]Man(b1-4)GlcNAc(b1-4)GlcNAc
How it was run: as §1

[37] = target: Gal(b1-4)GlcNAc(b1-2)Man(a1-3)[Gal(b1-4)GlcNAc(b1-2)Man(a1-6)]Man(b1-4)GlcNAc(b1-4)[Fuc(a1-6)]GlcNAc
How it was run: as §1

[38] = target: Gal(b1-4)GlcNAc(b1-2)Man(a1-3)[Gal(b1-4)GlcNAc(b1-2)Man(a1-6)][Gal(b1-4)GlcNAc(b1-4)]Man(b1-4)GlcNAc(b1-4)[Fuc(a1-6)]GlcNAc
How it was run: as §1

B1: ABA (Agaricus bisporus), Q00022 (protein)
chain: MTYTISIRVYQTTPKGFFRPVERTNWKYANGGTWDEVRGEYVLTMGGSGTSGSLRFVSSDTDESFVATFGVHNYKRWCDIVTNLTNEQTALVINQEYYGVPIRDQARENQLTSYNVANAKGRRFAIEYTVTEGDNLKANLIIG
[1]
  glycan array binding signal (z-score): -0.285
[2]
  glycan array binding signal (z-score): -0.27
Gal(b1-3)GlcNAc(b1-2)Man
  glycan array binding signal (z-score): -0.228
[3]
  glycan array binding signal (z-score): 0.246
[4]
  glycan array binding signal (z-score): -0.167
[5]
  glycan array binding signal (z-score): -0.15
[6]
  glycan array binding signal (z-score): -0.214
[7]
  glycan array binding signal (z-score): -0.259
[8]
  glycan array binding signal (z-score): -0.241
[9]
  glycan array binding signal (z-score): -0.216
[10]
  glycan array binding signal (z-score): -0.219
[11]
  glycan array binding signal (z-score): -0.175
[12]
  glycan array binding signal (z-score): -0.165
[13]
  glycan array binding signal (z-score): -0.319
[14]
  glycan array binding signal (z-score): -0.245
[15]
  glycan array binding signal (z-score): -0.161
[16]
  glycan array binding signal (z-score): -0.179
[17]
  glycan array binding signal (z-score): -0.3
[18]
  glycan array binding signal (z-score): -0.25
[19]
  glycan array binding signal (z-score): 0.023
Gal(b1-3)GlcNAc6S
  glycan array binding signal (z-score): -0.257
[20]
  glycan array binding signal (z-score): -0.208
[21]
  glycan array binding signal (z-score): 0.075
[22]
  glycan array binding signal (z-score): 0.431
[23]
  glycan array binding signal (z-score): -0.214
[24]
  glycan array binding signal (z-score): 0.229
[25]
  glycan array binding signal (z-score): -0.226
[26]
  glycan array binding signal (z-score): -0.229
[27]
  glycan array binding signal (z-score): 0.686
[28]
  glycan array binding signal (z-score): -0.104
[29]
  glycan array binding signal (z-score): -0.284
[30]
  glycan array binding signal (z-score): -0.174
[31]
  glycan array binding signal (z-score): -0.241
Gal(b1-4)Gal
  glycan array binding signal (z-score): -0.183
[32]
  glycan array binding signal (z-score): -0.224
[33]
  glycan array binding signal (z-score): -0.227
Gal(b1-4)Glc
  glycan array binding signal (z-score): -0.163
Gal(b1-4)Glc6S
  glycan array binding signal (z-score): -0.203
Gal(b1-4)GlcNAc
  glycan array binding signal (z-score): -0.244
[34]
  glycan array binding signal (z-score): -0.242
Gal(b1-4)GlcNAc(b1-2)Man
  glycan array binding signal (z-score): -0.184
[35]
  glycan array binding signal (z-score): -0.264
[36]
  glycan array binding signal (z-score): -0.25
[37]
  glycan array binding signal (z-score): -0.215
[38]
  glycan array binding signal (z-score): -0.258
